Assay results published in PubChem BioAssay AID1240 (Sanford-Burnham Center for Chemical Genomics, 2008).
Among all 50,000 compounds or so, about 800 (1.6%) showed an effect of 50% or more. This is one part of the list.

Biological target: Bcl-2-like protein 10 (Homo sapiens) (UniProt Q9HD36)
Experiment: TR3 peptide-Bcl-B binding displacers, biochemical primary FP assay, phenotype converters (AID 1240);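 also: 0% = Bcl-B with tracer peptide and DMSO and 100% = tracer peptide lacking Bcl-B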
Settings: GST-Bcl-B / FITC-TR3 peptide fluorescence polarization; stronger effect = higher value; compound at 3.75 mg/L

UniProt Q9HD36, sequence (Q9HD36 whole entry, looked up): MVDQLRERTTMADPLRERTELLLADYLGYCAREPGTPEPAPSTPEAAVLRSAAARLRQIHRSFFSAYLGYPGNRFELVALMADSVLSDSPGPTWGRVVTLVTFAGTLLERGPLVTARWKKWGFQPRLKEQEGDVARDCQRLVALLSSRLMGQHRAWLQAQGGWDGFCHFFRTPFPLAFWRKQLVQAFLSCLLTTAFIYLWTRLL

Compound | displacement [%]
Cc1ccc(OCC(=O)Nc2cc([N+](=O)[O-])ccc2Cl)cc1 | 7.1
O=C1/C(=C\c2ccsc2)SC(=S)N1Cc1ccccc1 | 17.1
O=c1oc2ccccc2c(O)c1Cc1ccccc1 | 13.1
O=C1NC(=S)N(c2cccc(Br)c2)C(=O)/C1=C/c1ccc(-c2ccccc2C(=O)O)o1 | 0.4
O=C(N/N=C/c1cc(Br)ccc1OC(=O)c1ccco1)c1cccnc1 | -2.3
COc1ccc(-c2c(C#N)c(SCC(=O)c3ccc(Cl)cc3)nc(C)c2C(=O)Nc2ccc(Cl)cc2)cc1 | 3.9
N=C1S/C(=C\c2ccc(-c3cccc([N+](=O)[O-])c3)o2)C(=O)N1c1ccc2c(c1)OCO2 | 11.6
COc1ccc(C(=O)Nc2ccc(-c3nc4cc(C)c(C)cc4o3)c(O)c2)cc1[N+](=O)[O-] | -0.7
Cc1cc(C(=O)Oc2ccccc2C(=O)O)c(C)o1 | -15.8
COC(=O)C1=C(C)N(C)C(C)=C(C(=O)OC)C1c1ccccc1C | -10.6
O=C(/C(=N\O)n1cncn1)c1ccc(Br)cc1Br | 11.1
CCCCc1ccc(NS(=O)(=O)c2c(C)cc(C)cc2C)cc1 | -11.6
FC(F)(F)c1cc(-c2ccccc2)nc2ncnn12 | -13.3
CCOc1ccc(NC(=O)c2ccccc2NC(=O)c2ccc(C)cc2)cc1 | -1.3
O=P(O)(Oc1ccc(Cl)cc1)Oc1ccccc1F | -8.1
COc1cc(C2C(C#N)=C(N)Oc3c2[nH]c(=O)[nH]c3=O)cc(OC)c1OC (centres undefined) | 5.2
Cc1ccc(N2CCCCC2)c2c1C(=O)c1ccccc1C2=O | 1.1
O=c1[nH]c(=O)n(-c2ccccc2Cl)c(O)c1C=Nc1cccc(Cl)c1 | -4
COc1ccc(Cl)cc1NC(=O)c1ccc(CN(c2ccccc2)S(C)(=O)=O)cc1 | 8.4
Cc1ccc(/C=C2\SC(=S)N(CCC(=O)Nc3cccc(C)c3)C2=O)cc1 | 0.5
Cc1ccc[n+](CC(=O)c2ccc(-c3ccccc3)cc2)c1 | 14.4
COc1ccc(NC(=O)C2=C(C)NC(=S)NC2c2ccc(OC)cc2)cc1 (centres undefined) | 1.7
COc1cccc(N2C(=O)NC(=O)/C(=C/c3ccc(OC)c4ccccc34)C2=O)c1 | -4.6
COc1ccc(CNC(=O)CN(c2cc(C)cc(C)c2)S(C)(=O)=O)cc1 | -4.3
Cc1c(Cl)cccc1-n1ncnc1-c1ccccc1Cl | -1.3
COC(=O)c1cc(C(=O)Nc2nc3ccccc3s2)cc([N+](=O)[O-])c1 | 12.7
Cc1ccc(C(=O)Nc2ccccc2C(=O)N2CCOCC2)cc1 | 2.4
CCN1C(=O)/C(=C\c2ccc(-c3ccc([N+](=O)[O-])cc3)o2)SC1=S | -9.1
Cc1ccc(S(=O)(=O)N2CCC(O)CC2C)cc1 (centres undefined) | 10.6
